Measured values taken from the supplement of paper PMC7125110.
Variants at the background level are over-represented here.

B1: glmS ribozyme (parent)
chain: AUAAAAGCGCCAGAACUACAGAAAUGUAGUUGACGAGGAGGAGGUUUAUCGAAUUUUCGGCGGAUGCCUCCAAA

How the values were obtained:
Details in all cases: with glucosamine-6-phosphate
[1] = variants of: B1; experiment: self-cleavage kobs at 640 uM GlcN6P; higher = faster cleavage; RNA array
Summary of the method: (§1)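 Sequenced MiSeq chips were the platform: E. coli RNA polymerase transcribed barcoded ribozyme variants on them in situ, and a hybridised Cy3 probe tracked these at 37 °C. After glucosamine-6-phosphate (40 μM to 10 mM) in HEPES/KCl/Mg(OAc)2 buffer was flowed in, tiles were imaged over ~14 h. Signals normalised to baseline and to non-cleaving reference variants were reduced to per-tile medians and fit to one- or two-exponential decays to obtain kobs. kcat and KM were derived through weighted Michaelis–Menten fits across concentrations.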

[2] = variants of: B1; experiment: self-cleavage kobs at 2500 uM GlcN6P; higher = faster cleavage; RNA array
Summary of the method: as §1

[3] = variants of: B1; experiment: self-cleavage kobs at 160 uM GlcN6P; higher = faster cleavage; RNA array
Summary of the method: as §1

[4] = variants of: B1; experiment: self-cleavage kobs at 10000 uM GlcN6P; higher = faster cleavage; RNA array
Summary of the method: as §1

Variant	self-cleavage kobs at 640 uM GlcN6P [1] [s⁻¹]	self-cleavage kobs at 2500 uM GlcN6P [2] [s⁻¹]	self-cleavage kobs at 160 uM GlcN6P [3] [s⁻¹]	self-cleavage kobs at 10000 uM GlcN6P [4] [s⁻¹]
AUAAAAGCGCCAGAACUACAGAAAUGUAGUUGACUAGGAGAAGGUUUAUCGAAUUUUCAGCGGAUGCCUCCAAA [G35U G41A G59A]	< 1e-05	< 1e-05		
AUAAAAGCGCCAGAACUACAGAAAUGUAGUUGACCAGGAGGAGGUUUAUCGAAUUUUUGGCGGAUGCCUCCAAA [G35C C58U]	< 1e-05		< 1e-05	
AUAAAAGCGCCAGAACUACAGAAAUGUAGUUGACUAGGAGGAGGUUUAUCGAAUUUUCGGCGGAUGCCUCUAAA [G35U C71U]	< 1e-05	< 1e-05	< 1e-05	< 1e-05
AUAAAAGCGCCAGAACUACAGAAAUGUAGUUGACGGGGAGGACGUUUAUCGAAUAUUCUGCGGACGCCUCCAAA [A36G G43C U55A G59U U65C]	< 1e-05		< 1e-05	
AUAAAAGCGCCAGAACUACAGAAAUGUAGUUGACGCGGAGGAGGUUUAUCGAGUUUUCGGCGGAUUCCUCCAAA [A36C A53G G66U]	< 1e-05	< 1e-05		
AUAAAAGCGCCAGAACUACAGAAAUGUAGUUGACUAGGAGGAGGUUUAUCGAAUUUUCGGUGGAUGCCUCCAAA [G35U C61U]	< 1e-05	< 1e-05	< 1e-05	
AUAAAAGCGCCAGAACUACAGAAAUGUAGUUGACGCGGAGCAGGUUUAUCGAAUUUUCUGCGGAUGCCUCCAAA [A36C G41C G59U]	< 1e-05	< 1e-05	< 1e-05	
AUAAAAGCGCCAGAACUACAGAAAUGUAGUUGACGCGUCGGAGGUUUAUCGAAUUUUCGGCGGAUGCCUCCAAA [A36C G38U A39C]	< 1e-05			< 1e-05
AUAAAAGCGCCAGAACUACAGAAAUGUAGUUGACCAGGACGAGGUUUAUCGAAUUUUCGGCGGAUGCCUCCAAA [G35C G40C]	< 1e-05	< 1e-05	< 1e-05	< 1e-05
AUAAAAGCGCCAGAACUACAGAAAUGUAGUUGACCAGGAGGAGGUUGAUCGAAUUUUCGGCGGAUGCCUCCAAA [G35C U47G]	< 1e-05		< 1e-05	
AUAAAAGCGCCAGAACUACAGAAAUGUAGUUGACGCGGAGGAGGUUUAUCGAAUGUUCGGCGGAUGCCUCCAAA [A36C U55G]	< 1e-05			< 1e-05
AUAAAAGCGCCAGAACUACAGAAAUGUAGUUGACGGGGAGAACGUUUAUCGAAUUUUCGGCGGAUGCCUCGAAA [A36G G41A G43C C71G]	< 1e-05			
AUAAAAGCGCCAGAACUACAGAAAUGUAGUUGACGCGGAGGAGGUUUAUCGAAUUUUCGGCGAAUGUCUCCAAA [A36C G63A C67U]	< 1e-05		< 1e-05	
AUAAAAGCGCCAGAACUACAGAAAUGUAGUUGACUAGGAGGAGGUUUAUCGAAUUUGCGGCGGAUGCCUCCAAA [G35U U57G]	< 1e-05		< 1e-05	< 1e-05
AUAAAAGCGCCAGAACUACAGAAAUGUAGUUGACGCGGAGGAGGUUUCUCGAUUUUUCGGCGGAUGCCUCCAAA [A36C A48C A53U]	< 1e-05	< 1e-05	< 1e-05	
AUAAAAGCGCCAGAACUACAGAAAUGUAGUUGACUAGGAGUAGGUUUAUCGAAUUUUCGGCGUAUGCCUCCAAA [G35U G41U G63U]	< 1e-05			
AUAAAAGCGCCAGAACUACAGAAAUGUAGUUGACUAGGAGGAGGUUUAUCGAAUUUUCGGCGGAUGCUUCCAAA [G35U C68U]	< 1e-05	< 1e-05		

Variant	self-cleavage kobs at 640 uM GlcN6P [1] [s⁻¹]	self-cleavage kobs at 2500 uM GlcN6P [2] [s⁻¹]	self-cleavage kobs at 160 uM GlcN6P [3] [s⁻¹]	self-cleavage kobs at 10000 uM GlcN6P [4] [s⁻¹]
AUAAAAGCGCCAGAACUACAGAAAUGUAGUUGACUAGGAGGAGGAUUAUCGAAUUUCCGGCGGAUGCAUCCAAA [G35U U45A U57C C68A]	< 1e-05	< 1e-05	< 1e-05	
AUAAAAGCGCCAGAACUACAGAAAUGUAGUUGACCAGGAGGAGGUUUAUCGAUUGUUCGGCGGAUGCCUCCAAA [G35C A53U U55G]	< 1e-05	< 1e-05	< 1e-05	
AUAAAAGCGCCAGAACUACAGAAAUGUAGUUGACCAGGAGGAGGUUUAUCCAAUUUUCGGUGGAUCCCUCCAAA [G35C G51C C61U G66C]	< 1e-05			
AUAAAAGCGCCAGAACUACAGAAAUGUAGUUGACGCGAAAGAGGUUUAUCUAAUUUUCGGCGGGUGCCUCCAAA [A36C G38A G40A G51U A64G]	< 1e-05	< 1e-05		
AUAAAAGCGCCAGAACUACAGAAAUGUAGUUGACUAGGAGGAGGGUUAUCAAAUUUUGGGCGGAUGCCUCCAAA [G35U U45G G51A C58G]	< 1e-05	< 1e-05		
AUAAAAGCGCCAGAACUACAGAAAUGUAGUUGACGCGGGGGAGGUUUCUCGAAUUUUCGGCGGAUGCCUCCAAA [A36C A39G A48C]	< 1e-05	< 1e-05		
AUAAAAGCGCCAGAACUACAGAAAUGUAGUUGACUAGGAGGAGGUUUAUCAAAUUUUCGGCGGAUGCAUCCAAA [G35U G51A C68A]	< 1e-05			
AUAAAAGCGCCAGAACUACAGAAAUGUAGUUGACCAGGAGGAGGUUUAUCGAAUUUUCGUCGUAUUCCUCCAAA [G35C G60U G63U G66U]	< 1e-05			
AUAAAAGCGCCAGAACUACAGAAAUGUAGUUGACUAGGAGGAGGUUUAUCGAAUUCUCGGCGGAUGCCUCCAAA [G35U U56C]	< 1e-05	< 1e-05		< 1e-05
AUAAAAGCGCCAGAACUACAGAAAUGUAGUUGACCAGGAGGAGGUUUAUCGAAUAUUCGGCGGAUGCCUCCAAA [G35C U55A]	< 1e-05		< 1e-05	
AUAAAAGCGCCAGAACUACAGAAAUGUAGUUGACUAGGAGGAGUUUUAUCGAAUUUUCGGCGGAUGCCUUCAAA [G35U G44U C70U]	< 1e-05			
AUAAAAGCGCCAGAACUACAGAAAUGUAGUUGACCAGGAGGAGGUUUAUCGAAUUUUGGGCGGAUGCCUCAAAA [G35C C58G C71A]	< 1e-05	< 1e-05	< 1e-05	
AUAAAAGCGCCAGAACUACAGAAAUGUAGUUGACUACGAGGAGGUUUAUCUAAUUUUCGGCGGAUGCCUCCAAA [G35U G37C G51U]	< 1e-05		< 1e-05	
AUAAAAGCGCCAGAACUACAGAAAUGUAGUUGACCAGGAGGAGGUUUAUCGAAGUUUCGGGGGAUGCCUCCAAA [G35C U54G C61G]	< 1e-05	< 1e-05		
AUAAAAGCGCCAGAACUACAGAAAUGUAGUUGACUAGGAGGAGGUUUAUCGAAUUUUCGGCUGAUUCUUCCAAA [G35U G62U G66U C68U]	< 1e-05			
AUAAAAGCGCCAGAACUACAGAAAUGUAGUUGACGCGGGGGAGGUUUAUCGAAUUUUCGGCGGAUGCUUCCAAA [A36C A39G C68U]	< 1e-05		< 1e-05	
AUAAAAGCGCCAGAACUACAGAAAUGUAGUUGACGGGCAGGAGGUUUAUCGAAUUUUCGGCGGAUGCCUCCAAA [A36G G38C]	< 1e-05	< 1e-05		< 1e-05
